Measured values from the supplement of paper PMC10126150.
Values marked as one replicate rest on one cluster of the flow cell; about a third of the high ones do not repeat.
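Note: ATP exposure 15 min at 22 °C before imaging.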

These sequences were tested on ATP (assay: switch fluorescence ratio, 500 uM ATP over buffer (Cy3 cluster intensity, sum of 5 cycles each) (fold (ratio)); higher = stronger signal-on switching upon ATP binding; sequences stand for … in TCGTCGGCAGCGTCAGATGTGTATAAGAGACAGTTTTTTTTTTTTTTTTTTTTTTTTT…TC). Details: aptamer strand: ATP DNA aptamer (quencher-CACCTGGGGGAGTATTGCGGAGGAAGG + anchor), 100 nM annealed; ATP concentration: 500 uM; one replicate.
Procedure, shortened: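 The quencher-labelled ATP aptamer, at 100 nM, was annealed to Cy3-labelled switching-strand clusters on a modified Illumina MiSeq flow-cell. The clusters were imaged in selection buffer, then after 15 min with 500 uM ATP at 22 °C, and this buffer/ATP cycle ran five times with NaOH stripping and re-annealing between runs. Per-cluster fluorescence ratios, summed target-cycle over summed buffer-cycle Cy3 intensity, were averaged per switch-domain sequence. Clusters outside 100-1000 RFU were excluded.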
AGATCACCCC showed a switch fluorescence ratio of 1.1. AGATCATGTC gave a switch fluorescence ratio of 0.975. With AGATCCTGA the switch fluorescence ratio was 1.12. For AGATCGAGCG, the switch fluorescence ratio was 1.01. With AGATCGTCTT the switch fluorescence ratio was 0.973. Work on AGATCTAGCT yielded a switch fluorescence ratio of 0.962. Sequence AGATCTGGTC has a switch fluorescence ratio of 1.02. Sequence AGATGACAAA has a switch fluorescence ratio of 1. With AGATGAGAGG the switch fluorescence ratio was 0.954. With AGATGCACAT the switch fluorescence ratio was 1.03. For AGATGCTACT, the switch fluorescence ratio was 0.985. In the case of AGATGTTGAT, the switch fluorescence ratio is reported as 0.962. In the case of AGATTACCTC, the switch fluorescence ratio is reported as 1.03. For AGATTACGTA, the switch fluorescence ratio was 1.11. Work on AGATTAGG yielded a switch fluorescence ratio of 0.953. For AGATTCCGCA, the switch fluorescence ratio was 1.44. Work on AGATTGAGTA yielded a switch fluorescence ratio of 0.984. In the case of AGATTGCCAG, the switch fluorescence ratio is reported as 1.03. Sequence AGCAAAAATT has a switch fluorescence ratio of 0.991. AGCAAAAGCG gave a switch fluorescence ratio of 0.985. With AGCAAGGATC the switch fluorescence ratio was 1.17. Work on AGCAAGGTTG yielded a switch fluorescence ratio of 1.01. Sequence AGCAAGTAAT has a switch fluorescence ratio of 1.07. Sequence AGCAAGTTAC has a switch fluorescence ratio of 3.68. In the case of AGCACAGACG, the switch fluorescence ratio is reported as 1.16. In the case of AGCACCAAGG, the switch fluorescence ratio is reported as 1.14. With AGCACCAGTA the switch fluorescence ratio was 1. In the case of AGCACCCAGC, the switch fluorescence ratio is reported as 1. With AGCACGACGG the switch fluorescence ratio was 1.04. In the case of AGCACGTTCC, the switch fluorescence ratio is reported as 3.19. In the case of AGCACTGTTG, the switch fluorescence ratio is reported as 1.01. AGCAGAAACG showed a switch fluorescence ratio of 0.985. AGCAGACGAT was tested, and the switch fluorescence ratio was 1.28. Work on AGCAGACTT yielded a switch fluorescence ratio of 1.09. Sequence AGCAGGCCGT has a switch fluorescence ratio of 0.891. In the case of AGCAGGCTAT, the switch fluorescence ratio is reported as 0.98. AGCATGAAGC gave a switch fluorescence ratio of 1. Work on AGCATGAGAA yielded a switch fluorescence ratio of 1.04. For AGCATGGGG, the switch fluorescence ratio was 0.984. Work on AGCATGTTAG yielded a switch fluorescence ratio of 1.01. Sequence AGCATTCTTG has a switch fluorescence ratio of 0.99. Work on AGCCAAACGC yielded a switch fluorescence ratio of 1.03. Work on AGCCAAAGC yielded a switch fluorescence ratio of 1.05. For AGCCACGATA, the switch fluorescence ratio was 1.18. Work on AGCCACTAGT yielded a switch fluorescence ratio of 1.01. Sequence AGCCAGAGTG has a switch fluorescence ratio of 1.45. Work on AGCCAGTGTG yielded a switch fluorescence ratio of 1.59. Sequence AGCCATCGAA has a switch fluorescence ratio of 1.01. For AGCCATTGTA, the switch fluorescence ratio was 1.01. Sequence AGCCCAGCTC has a switch fluorescence ratio of 0.979. With AGCCCCCCTG the switch fluorescence ratio was 1.69. Work on AGCCCCGATG yielded a switch fluorescence ratio of 1.09. AGCCCGCTGC was tested, and the switch fluorescence ratio was 1.23. AGCCCGTGAA was tested, and the switch fluorescence ratio was 1.02. In the case of AGCCCTGGAG, the switch fluorescence ratio is reported as 1.05. In the case of AGCCCTTACG, the switch fluorescence ratio is reported as 1.06. AGCCCTTTAG showed a switch fluorescence ratio of 1.05. AGCCGAAATA was tested, and the switch fluorescence ratio was 0.97. For AGCCGAAGGC, the switch fluorescence ratio was 0.969. With AGCCGAGGGG the switch fluorescence ratio was 1.01. Work on AGCCGAGGTA yielded a switch fluorescence ratio of 1.02. With AGCCGATCTG the switch fluorescence ratio was 0.973. AGCCGATTCC showed a switch fluorescence ratio of 1.12. AGCCGCCTG was tested, and the switch fluorescence ratio was 1. AGCCGGTCAT gave a switch fluorescence ratio of 0.98. Work on AGCCGTCCCG yielded a switch fluorescence ratio of 0.964. AGCCGTCTGC showed a switch fluorescence ratio of 0.891. AGCCTACTGG showed a switch fluorescence ratio of 1.01. AGCCTGTCTG gave a switch fluorescence ratio of 0.991. In the case of AGCCTTGACT, the switch fluorescence ratio is reported as 1.01. AGCCTTTCCG gave a switch fluorescence ratio of 1.35. Work on AGCCTTTTCT yielded a switch fluorescence ratio of 1.01. Sequence AGCGAAATGG has a switch fluorescence ratio of 1.11. AGCGAAGTGT showed a switch fluorescence ratio of 0.988. Sequence AGCGACATTA has a switch fluorescence ratio of 1.01. In the case of AGCGACTTTG, the switch fluorescence ratio is reported as 1.04. AGCGAGTGGT gave a switch fluorescence ratio of 0.999. Sequence AGCGATAGAA has a switch fluorescence ratio of 0.929. AGCGATTACA was tested, and the switch fluorescence ratio was 0.978. AGCGCGGAAT gave a switch fluorescence ratio of 0.921. Work on AGCGCTGCG yielded a switch fluorescence ratio of 1.04. AGCGCTTAGG was tested, and the switch fluorescence ratio was 0.995. With AGCGCTTTCT the switch fluorescence ratio was 0.993. For AGCGGATCTC, the switch fluorescence ratio was 1.08. With AGCGGATCTG the switch fluorescence ratio was 0.986. With AGCGGCATGA the switch fluorescence ratio was 1.02. Work on AGCGGGATTC yielded a switch fluorescence ratio of 1.09. AGCGGGGGTC gave a switch fluorescence ratio of 0.975. With AGCGGGGTTG the switch fluorescence ratio was 1.02. Work on AGCGGTGTCA yielded a switch fluorescence ratio of 1.02. Work on AGCGGTGTGT yielded a switch fluorescence ratio of 1.02. In the case of AGCGGTTGGT, the switch fluorescence ratio is reported as 0.939. AGCGTAACAG showed a switch fluorescence ratio of 0.957. For AGCGTAATTC, the switch fluorescence ratio was 1. In the case of AGCGTCCTGT, the switch fluorescence ratio is reported as 0.983. AGCGTCGTGG showed a switch fluorescence ratio of 1. Sequence AGCGTGGACC has a switch fluorescence ratio of 1.09. In the case of AGCTACTATT, the switch fluorescence ratio is reported as 1.01. AGCTACTGCA gave a switch fluorescence ratio of 1.03. In the case of AGCTAGGGTA, the switch fluorescence ratio is reported as 0.994. AGCTAGTAAC gave a switch fluorescence ratio of 1.02. Work on AGCTAGTCAT yielded a switch fluorescence ratio of 1.02. For AGCTAGTCCG, the switch fluorescence ratio was 0.975. With AGCTCAGTA the switch fluorescence ratio was 0.997. AGCTCCTATC was tested, and the switch fluorescence ratio was 0.969. Sequence AGCTGCGTGG has a switch fluorescence ratio of 1.02. With AGCTGCTAAG the switch fluorescence ratio was 0.985. For AGCTGGGCAA, the switch fluorescence ratio was 1.12. With AGCTGGTCGA the switch fluorescence ratio was 1.01. In the case of AGCTGTACAG, the switch fluorescence ratio is reported as 1.02. In the case of AGCTGTATTA, the switch fluorescence ratio is reported as 0.983. With AGCTTCGGTG the switch fluorescence ratio was 1.03. With AGCTTGGTAT the switch fluorescence ratio was 0.992. AGGAAATAAC gave a switch fluorescence ratio of 1.02. Sequence AGGAACCAGG has a switch fluorescence ratio of 1.65. In the case of AGGAACGAAG, the switch fluorescence ratio is reported as 0.995. For AGGAAGTACG, the switch fluorescence ratio was 1.14. In the case of AGGAAGTTAA, the switch fluorescence ratio is reported as 0.939. Work on AGGACCCCGA yielded a switch fluorescence ratio of 1.04. With AGGACGAAAG the switch fluorescence ratio was 1.03. Work on AGGACGCTCC yielded a switch fluorescence ratio of 1.07. AGGACTTAAG gave a switch fluorescence ratio of 1.12. In the case of AGGAGAGACA, the switch fluorescence ratio is reported as 1.06. AGGAGAGATA gave a switch fluorescence ratio of 0.973. In the case of AGGAGATCGC, the switch fluorescence ratio is reported as 0.967. AGGAGCACTA was tested, and the switch fluorescence ratio was 1.09. Sequence AGGAGCGAGA has a switch fluorescence ratio of 1.03. In the case of AGGAGCGGC, the switch fluorescence ratio is reported as 0.846. AGGAGGATTC was tested, and the switch fluorescence ratio was 1.01. For AGGAGGGAAA, the switch fluorescence ratio was 1.01. In the case of AGGAGGTTC, the switch fluorescence ratio is reported as 1.02. Sequence AGGAGGTTGA has a switch fluorescence ratio of 0.954. AGGAGTGT gave a switch fluorescence ratio of 1. With AGGAGTTCCC the switch fluorescence ratio was 0.964. Work on AGGATAGCT yielded a switch fluorescence ratio of 1.06. For AGGATCTACC, the switch fluorescence ratio was 1.27. With AGGATGGCT the switch fluorescence ratio was 0.986. In the case of AGGATGTCAT, the switch fluorescence ratio is reported as 0.95. AGGATGTTAG gave a switch fluorescence ratio of 1. With AGGATTACAA the switch fluorescence ratio was 1.04. For AGGATTTTGT, the switch fluorescence ratio was 0.988. AGGCAAACGA gave a switch fluorescence ratio of 1.19. AGGCAATTAA showed a switch fluorescence ratio of 1.12. For AGGCACGGTG, the switch fluorescence ratio was 0.976. Sequence AGGCAGACGG has a switch fluorescence ratio of 1.02. AGGCAGGAAA showed a switch fluorescence ratio of 0.993. For AGGCAGGCTT, the switch fluorescence ratio was 0.953. With AGGCATAGTG the switch fluorescence ratio was 0.995. AGGCCGAGT showed a switch fluorescence ratio of 0.998. AGGCCGCCAT was tested, and the switch fluorescence ratio was 1.03. In the case of AGGCCGGGCG, the switch fluorescence ratio is reported as 0.987. AGGCCGGTAG gave a switch fluorescence ratio of 0.961. For AGGCCTGAAG, the switch fluorescence ratio was 0.992. In the case of AGGCGATGCA, the switch fluorescence ratio is reported as 0.995. With AGGCGGAGTA the switch fluorescence ratio was 1. Sequence AGGCGTCCGG has a switch fluorescence ratio of 0.961. Work on AGGCTCCATG yielded a switch fluorescence ratio of 1.02. For AGGCTCCCGG, the switch fluorescence ratio was 1.02. Sequence AGGCTCTCAA has a switch fluorescence ratio of 1.07. For AGGCTGATGT, the switch fluorescence ratio was 0.964. Work on AGGCTGCCAA yielded a switch fluorescence ratio of 1.03. AGGCTGCTAT gave a switch fluorescence ratio of 0.971. Work on AGGCTGGAGC yielded a switch fluorescence ratio of 1.03. In the case of AGGCTGGTTT, the switch fluorescence ratio is reported as 1. AGGCTGTAGC was tested, and the switch fluorescence ratio was 0.996. AGGCTTGAAT was tested, and the switch fluorescence ratio was 1.01. AGGCTTTACG was tested, and the switch fluorescence ratio was 0.966. AGGGACTGCA was tested, and the switch fluorescence ratio was 1.08. AGGGAGCGTA was tested, and the switch fluorescence ratio was 1.05. With AGGGAGTGTG the switch fluorescence ratio was 1.03. With AGGGATGTAC the switch fluorescence ratio was 1.13. AGGGCAATTT showed a switch fluorescence ratio of 1.07. Sequence AGGGCAGTGA has a switch fluorescence ratio of 1.06. AGGGCAGTGC showed a switch fluorescence ratio of 1.06. For AGGGCCGGGG, the switch fluorescence ratio was 1.01. Work on AGGGCGCAAG yielded a switch fluorescence ratio of 1.01. AGGGCGGATG gave a switch fluorescence ratio of 1.01. For AGGGCGTAAT, the switch fluorescence ratio was 1.01. AGGGCGTATG was tested, and the switch fluorescence ratio was 1.04. AGGGCGTCCC showed a switch fluorescence ratio of 1.01. AGGGCGTGTC was tested, and the switch fluorescence ratio was 0.963. AGGGCTTCGA showed a switch fluorescence ratio of 1.04. AGGGGAGCAC showed a switch fluorescence ratio of 1.03. Sequence AGGGGATATC has a switch fluorescence ratio of 1.2. Sequence AGGGGATCAC has a switch fluorescence ratio of 0.989. AGGGGATGAG gave a switch fluorescence ratio of 0.991. Work on AGGGGATGGT yielded a switch fluorescence ratio of 0.944. For AGGGGCATAA, the switch fluorescence ratio was 1.01. AGGGGCCGCT gave a switch fluorescence ratio of 0.965. For AGGGGCGCGG, the switch fluorescence ratio was 1. In the case of AGGGGCGGCA, the switch fluorescence ratio is reported as 0.979. AGGGGCTCAC showed a switch fluorescence ratio of 1.02. AGGGGGGCA showed a switch fluorescence ratio of 0.999. In the case of AGGGGGGTCC, the switch fluorescence ratio is reported as 1.05. Work on AGGGGTGGG yielded a switch fluorescence ratio of 0.996. AGGGGTTC gave a switch fluorescence ratio of 0.954. In the case of AGGGGTTCC, the switch fluorescence ratio is reported as 1.01. AGGGGTTTTA gave a switch fluorescence ratio of 0.998. Sequence AGGGTAAGTT has a switch fluorescence ratio of 0.972. For AGGGTATCCC, the switch fluorescence ratio was 0.994. AGGGTCCGAT gave a switch fluorescence ratio of 1.04.
